About 4,700 (1.2%) of roughly 390,000 compounds were called active. This list was built around the results that the source calls inconclusive (neither active nor inactive); the mix of calls is not that of the screen. Calls follow the shape of the dose curve; as a rule, active = well fitted inhibition curve with a large enough effect; inconclusive = small, poorly fitted or top-dose-only effect, or another doubt; inactive = no such curve, though single readings can be large or run the other way. Potencies beside an inconclusive call are fits to weak or partial responses and may not hold up.
These compounds were tested against DNA polymerase eta (Homo sapiens) (UniProt Q9Y253) (assay: qHTS for Inhibitors of Polymerase Eta). Conditions: recombinant Pol eta, fluorescent DNA replication assay; series mostly up to 114 µM.
Chain of UniProt Q9Y253 (Q9Y253 whole entry, looked up): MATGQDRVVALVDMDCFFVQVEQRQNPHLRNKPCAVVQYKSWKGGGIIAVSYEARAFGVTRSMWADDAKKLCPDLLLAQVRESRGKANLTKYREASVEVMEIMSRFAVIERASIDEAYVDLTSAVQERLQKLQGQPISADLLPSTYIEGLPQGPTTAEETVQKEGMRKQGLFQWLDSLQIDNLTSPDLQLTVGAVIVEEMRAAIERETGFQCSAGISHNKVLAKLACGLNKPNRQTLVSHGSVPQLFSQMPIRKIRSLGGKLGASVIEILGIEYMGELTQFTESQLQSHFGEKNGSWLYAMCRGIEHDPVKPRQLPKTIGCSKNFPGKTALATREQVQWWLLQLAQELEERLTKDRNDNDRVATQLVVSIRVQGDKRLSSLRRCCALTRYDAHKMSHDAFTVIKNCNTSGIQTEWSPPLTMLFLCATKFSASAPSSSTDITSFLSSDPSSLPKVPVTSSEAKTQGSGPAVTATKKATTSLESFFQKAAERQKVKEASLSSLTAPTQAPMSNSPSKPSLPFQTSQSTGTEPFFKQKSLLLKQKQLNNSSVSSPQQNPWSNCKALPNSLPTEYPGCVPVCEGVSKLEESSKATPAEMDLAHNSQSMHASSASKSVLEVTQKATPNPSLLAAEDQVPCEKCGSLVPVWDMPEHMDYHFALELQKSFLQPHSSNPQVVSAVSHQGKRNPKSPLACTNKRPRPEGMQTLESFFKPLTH
How it was run: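 Fluorescent replication assay: 50 nM final substrate added after a 15 min room-temperature compound preincubation with 10 nM enzyme. Signal taken at 0 min and again at 10 min.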
Potency is read from the fitted curve at half-maximal effect; tags tell the direction and shape of the fitted curve.

| SMILES | Potency |
| --- | --- |
| CCC(c1nnnn1CCc1ccccc1)N(Cc1ccco1)Cc1cc2cccc(C)c2[nH]c1=O (stereo unspecified) | inconclusive: 79.4 µM [inhibitor, partial curve, poor fit] |
| CSc1ccc(S(=O)(=O)NCC(=O)OCC(=O)NCc2cccs2)cc1[N+](=O)[O-] | inactive |
| O=C(CSc1ccc(-c2ccco2)nn1)NCc1ccc(F)cc1 | inactive |
| Cc1ccc(C)c(N2CCN(S(=O)(=O)c3ccc(-c4coc(C)n4)cc3)CC2)c1 | inconclusive: 89.1 µM [inhibitor, partial curve] |
| COc1cc(C(CC(=O)Nc2cccc(C(C)=O)c2)N2Cc3ccccc3C2=O)cc(OC)c1OC (stereo unspecified) | inactive |
| CCOc1ccccc1NC(=O)CCc1nnc2ccc(NCc3ccco3)nn12 | inconclusive: 50.1 µM [inhibitor, partial curve] |
| C=CCC1(CC=C)CCCN1C(=O)c1cc(COc2cccc(C(F)(F)F)c2)on1 | inconclusive: 50.1 µM [inhibitor, partial curve, poor fit] |
| CCCc1n[nH]c2c1/C(=N/O)CC(c1ccccc1)C2 (stereo unspecified) | inconclusive: 39.8 µM [inhibitor, single point] |
| CCNc1nc(NCC)n2c(SCC(=O)Nc3cccc(Cl)c3)nnc2n1 | active: 14.1 µM |
| NC(=O)N=Nc1c2[nH]c3ccccc3nc-2c2ccccc12 | inconclusive: 22.4 µM [inhibitor, full curve] |
| Nc1ccc2ncccc2c1N | inconclusive: 2.82 µM [inhibitor, full curve, poor fit] |
| O=C(CSc1nccc(=O)[nH]1)N1N=C2/C(=C/c3ccco3)CCCC2C1c1ccco1 (stereo unspecified) | active: 25.1 µM |
| CCOC(=O)c1nc(Nc2ccc(N3CCC(C)CC3)cc2)c2ccccc2n1 | inconclusive: 79.4 µM [inhibitor, partial curve, poor fit] |
| COc1cc(CNCCSc2nnnn2C)ccc1OCc1ccc(C)cc1 | inactive |
| COc1ccc2c3c(cccc13)OCC2=O | inconclusive: 22.4 µM [inhibitor, single point] |
| Clc1ccc2oc(-c3ccccc3)nc2c1 | inactive |
| CC1=C/C(=C\C=C(C#N)C#N)N(C)c2ccccc21 | inconclusive: 15.8 µM [inhibitor, full curve] |
| Cc1nc2ncccn2c1-c1csc(Nc2ccccc2)n1 | inconclusive: 14.1 µM [inhibitor, partial curve, poor fit] |
| CCOC(=O)c1ccc2nc(C)cc(Nc3ccc(OC(C)C)cc3)c2c1 | inactive |
| COc1cc(CNCc2ccc(SC)cc2)cc(OC)c1 | inactive |
| Cc1ccc(-n2cnc3cc(C(=O)NCc4ccc(F)cc4)ccc32)c(C)c1 | inactive |
| Cc1oc(C(=O)O)cc1CSCc1cc(C(=O)O)c(C)o1 | active: 3.16 µM |

| SMILES | Potency |
| --- | --- |
| Cc1ccc(N2CCN(C(=O)CNS(=O)(=O)c3ccc(Br)s3)CC2C)cc1 (stereo unspecified) | inconclusive: 7.08 µM [inhibitor, partial curve, poor fit] |
| CCN1/C(=C/c2ccc3cc(C)ccc3[n+]2CC)Sc2ccccc21 | inconclusive: 31.6 µM [inhibitor, full curve] |
| COc1cc(OC)c(NC(=O)c2noc3c2CSc2ccccc2-3)cc1Cl | inactive |
| CC(C)[C@@H]1CC[C@@H](C)C[C@H]1OC(=O)C[n+]1cc(-c2ccc(Cl)cc2)n2c1CCCCC2 | inconclusive: 89.1 µM [inhibitor, partial curve, poor fit] |
| CCn1c2ccccc2c2cc(NC(=O)c3ccc(=O)oc3)ccc21 | inconclusive: 4.47 µM [inhibitor, full curve, poor fit] |
| CCCc1nc2oc3cc(OC)ccc3c(=O)c2c(=O)n1Cc1ccco1 | inconclusive: 14.1 µM [inhibitor, full curve, poor fit] |
| CCCCOC(=O)c1ccc(NC(=O)c2cc(-c3cccs3)on2)cc1 | inactive |
| CCOC(=O)C1=C(CSc2nc(-c3ccccc3)ccc2C#N)OC(N)=C(C#N)C1c1cccnc1 (stereo unspecified) | inconclusive: 39.8 µM [inhibitor, partial curve] |
| COC(=O)c1cc(Cl)ccc1NC(=O)CSc1ncc(S(=O)(=O)c2ccc(Br)cc2)c(=O)[nH]1 | active: 89.1 µM |
| CC(OC(=O)/C(C#N)=C/c1ccc(N(C)C)cc1)C(=O)N(C)c1ccccc1 (stereo unspecified) | active: 79.4 µM |
| COc1ccc(S(=O)(=O)/N=C2\C=C(Nc3ccc(O)cc3)C(=O)c3ccccc32)cc1 | inconclusive: 39.8 µM [inhibitor, partial curve] |
| CCOc1ccc(NC(=O)Cn2cc(C(=O)c3ccc(CC)cc3)c(=O)c3cc4c(cc32)OCO4)cc1 | inactive |
| COc1ccc(NC(=O)c2cnc(Nc3ccc(C)c(Cl)c3)c3ccccc23)c(OC)c1 | inactive |
| Cc1ccc(-c2csc(NC(=O)CSc3nc4ccccc4[nH]3)n2)cc1 | inactive |
| Cc1cc(C(=O)N/N=C/c2ccc(O)c(O)c2O)c(C)n1-c1ccccc1 | inactive |
| OC(COCC(F)(F)C(F)(F)C(F)(F)C(F)F)Cn1c2ccc(Cl)cc2c2cc(Cl)ccc21 (stereo unspecified) | inconclusive: 11.2 µM [inhibitor, partial curve, poor fit] |
| O=C(O)c1ccccn1 | inactive |
| CSCCC1NC(=O)N(CC(=O)Nc2cccc(S(=O)(=O)N3CCCCCC3)c2)C1=O (stereo unspecified) | inconclusive: 100 µM [inhibitor, partial curve, poor fit] |
| COc1ccc(S(=O)(=O)N2CCCC(C(=O)N3CCOCC3)C2)cc1C (stereo unspecified) | inconclusive: 79.4 µM [inhibitor, partial curve, poor fit] |
| COc1cc(C(=O)N2CCN(c3ccccc3O)CC2)ccc1OCC(=O)N1CCOCC1 | inconclusive: 28.2 µM [inhibitor, partial curve, poor fit] |
| CCOC(=O)CCCCCC(=O)Nc1ccc2c(c1)C(=O)N([C@H](C)CO)C[C@H](C)[C@H](CN(C)C(=O)C1CCCCC1)OCCCC[C@@H](C)O2 | inactive |
| CCOc1ccc(NC(=O)CSc2oc(-c3cccs3)nc2S(=O)(=O)c2ccc(C)cc2)cc1 | inconclusive: 89.1 µM [inhibitor, single point] |

| SMILES | Potency |
| --- | --- |
| CC(C)[C@H](NC(=O)[C@@H]1CSC2c3ccccc3C(=O)N21)C(=O)NCc1ccco1 (stereo partly specified) | inactive |
| Cc1[nH][nH]c(=O)c1C(c1c(C)[nH][nH]c1=O)c1cn(Cc2ccc(Cl)c(Cl)c2)c2ccccc12 | inconclusive: 39.8 µM [inhibitor, partial curve] |
| Cc1cc(C)c(S(=O)(=O)NCCSCc2ccco2)c(C)c1 | active: 20 µM |
| O=C1/C(=C\c2cccc([N+](=O)[O-])c2O)SC(=S)N1Cc1ccccc1 | active: 79.4 µM |
| COc1ccccc1CC(=O)NCC(c1ccco1)N1CCCCC1 (stereo unspecified) | inconclusive: 89.1 µM [inhibitor, partial curve, poor fit] |
| Cc1ccc(-c2cc(C(=O)NCc3cn(C)nc3C)c3cc(Br)ccc3n2)cc1 | inconclusive: 7.94 µM [inhibitor, full curve, poor fit] |
| COc1ccc2c(c1)C(O)C(CO)C(C(=O)O)C2 (stereo unspecified) | inactive |
| CCCCOc1c(Br)cc(CNCCCN2CCOCC2)cc1OC | inconclusive: 112 µM [inhibitor, partial curve, poor fit] |
| COc1ccc(C(C)=O)cc1COC(=O)c1ccc(OCc2c(C)noc2C)cc1 | inconclusive: 22.4 µM [inhibitor, partial curve] |
| COc1ccc(OC)c(/C=N/NC(=O)CSc2cc(C)nc3c(OC)cccc23)c1 | inconclusive: 28.2 µM [inhibitor, partial curve, poor fit] |
| Cc1[nH][nH]c(=O)c1C(c1ccc(-c2ccccc2C(=O)O)o1)c1c(C)[nH][nH]c1=O | active: 11.2 µM |
| Cc1csc2ncc(C(=O)NCc3ccco3)c(=O)n12 | inconclusive: 79.4 µM [inhibitor, single point] |
| CCc1ccc(NS(=O)(=O)c2ccc3[nH]cc(C(=O)N4CCc5ccccc54)c(=O)c3c2)cc1 | inconclusive: 22.4 µM [inhibitor, full curve, poor fit] |
| COc1ccc(Cn2c(-c3ccco3)nc3oc4cc(OC)ccc4c(=O)c3c2=O)cc1 | inconclusive: 89.1 µM [inhibitor, single point] |
| O=Cc1cn(-c2ccccc2)nc1-c1cc2c(ccc3ccccc32)oc1=O | inconclusive: 14.1 µM [inhibitor, partial curve, poor fit] |
| Cc1ccc(C(=O)NCC(c2ccco2)N2CCOCC2)cc1 (stereo unspecified) | inconclusive: 0.794 µM [inhibitor, partial curve, poor fit] |
| O=C(O)c1cc(-c2ccco2)[nH]n1 | inconclusive: 28.2 µM [inhibitor, partial curve, poor fit] |
| CCn1c(CC(=O)Nc2ccccc2F)nnc1SCC(=O)NC1CCCCC1 | inconclusive: 100 µM [inhibitor, partial curve, poor fit] |
| COc1cccc(-n2c(SCC(=O)c3ccccc3)nc3c([nH]c4ccccc43)c2=O)c1 | inconclusive: 89.1 µM [inhibitor, single point] |
| CC(=O)NS(=O)(=O)c1ccc(NC(=O)c2cc(-c3ccc(C)c(C)c3)nc3ccccc23)cc1 | active: 22.4 µM |
| COc1ccc2oc(=O)c(-c3nnc(NCc4ccco4)s3)cc2c1 | inconclusive: 5.01 µM [inhibitor, full curve, poor fit] |
| NS(=O)(=O)c1ccc(NC(=O)COC(=O)C2CCCCC2)cc1 | inconclusive: 44.7 µM [inhibitor, partial curve, poor fit] |
